Reference: US6995157B2, “Substituted 4,5-dihydro-1,2,4-triazin-3-ones, 1,2,4-triazin-3-ones, and their use as fungicides and insecticides” (priority 2000, dated 2006)
Like-named read-outs stand apart in the source and are kept apart here.

Tests used:
[1] = tested on: Southern Armyworm Spodoptera eridania
Experimental: (§1) A test solution containing 600 parts per million (ppm) was prepared by dissolving the appropriate weight of compound in solvent (acetone:methanol, 1:1), adding surfactant (Triton X-155 and Triton B-1956, approximately 1 oz/100 gal) and then tap water to give an acetone methanol: water system of 5:5:90. Lower concentrations of 150 and 38 ppm were made by serially diluting the 600 ppm test solution while maintaining constant solvent, water and surfactant levels.
(§2) The enclosed spraying chamber consisted of a single spray nozzle mounted on a boom moving at a fixed speed and distance over stationary targets. The vertical distance from the nozzle tip to the targets was 5.5 inches. The boom speed was 100 inches per 5 seconds. The boom passed only once over the targets.
Individual fully expanded primary lima bean (Phaseolus limensis) leaves were placed bottom side up on moistened pieces of filter paper in Petri dishes. The leaves were sprayed with the test solutions and allowed to dry. The dishes were infested with 10 third instar larvae of the southern armyworm, covered with the lids, and held at 27° C. Armyworm control was rated by visual inspection after 96 hours. LC50 values are calculated from the data.

[2] = tested on: Tobacco Budworm Heliothis virenscens
Experimental: as §1, §2
Individual cotton (Gossypium hirsutum) leaves were placed bottom side up on moistened pieces of filter paper in Petri dishes. The leaves were sprayed with the test solutions and allowed to dry. The dishes were infested with 5 neonate larvae of the tobacco budworm, covered with the lids, and held at 27° C. Percent mortality was determined 4 days post-treatment. LC50 values are calculated from the data.

[3] = 10 third instar larvae on sprayed lima bean leaves, 27° C., rated after 96 hours, test solutions 600, 150 and 38 ppm, LC50 calculated from the data
[4] = 5 neonate larvae on sprayed cotton leaves, 27° C., mortality 4 days post-treatment, test solutions 600, 150 and 38 ppm, LC50 calculated from the data

With `COC1NC(=O)N(C)N=C1c1ccc(Cl)cc1` (racemic) [Compound 12] the “LC50 AW” value [1, 3] was 150 ppm and the “LC50 TBW” value [2, 4] was 150 ppm.
With `COC1NC(=O)N(CC(F)(F)F)N=C1c1ccc(Cl)cc1` (racemic) [Compound 20] the “LC50 AW” value [1, 3] was 150 ppm and the “LC50 TBW” value [2, 4] was 150 ppm.
In the case of `CN1CC(c2ccc(Cl)cc2)=NN(c2ccc(Cl)cc2)C1=O` [Compound 6, 2,6-bis-(4-chlorophenyl)-4-methyl-4,5-dihydro-1,2,4-triazin-3-one], the “LC50 AW” value ([1]; in vivo) is reported as 150 ppm and the “LC50 TBW” value ([2]; in vivo) is reported as >600 ppm.
In the case of `C#CCN1N=C(c2ccc(Cl)cc2)CN(C)C1=O` [Compound 7, 2-propargyl-6-(4-chlorophenyl)-4-methyl-4,5-dihydro-1,2,4-triazin-3-one], the “LC50 AW” value ([1]; in vivo) is reported as 150 ppm and the “LC50 TBW” value ([2]; in vivo) is reported as 150 ppm.
With `Cn1nc(-c2ccc(Cl)cc2)cnc1=O` [Compound 11] the “LC50 AW” value [1, 3] was 150 ppm and the “LC50 TBW” value [2, 4] was 150 ppm.
For `O=C1NCC(c2ccc(Cl)cc2)=NN1CC(F)(F)F` [Compound 19], the “LC50 AW” value [1, 3] was 150 ppm and the “LC50 TBW” value [2, 4] was 150 ppm.
For `CCC#CCN1N=C(c2ccc(Cl)cc2)CN(C)C1=O` [Compound 21], the “LC50 AW” value [1, 3] was >600 ppm and the “LC50 TBW” value [2, 4] was 31 ppm.
With `CN1CC(c2ccc(Cl)cc2)=NN(C)C1=O` [Compound 22] the “LC50 AW” value [1, 3] was 500 ppm and the “LC50 TBW” value [2, 4] was 360 ppm.
For `CN1CC(c2ccc(Cl)cc2)=NN(Cc2ccccc2)C1=O` [Compound 23], the “LC50 AW” value [1, 3] was 600 ppm and the “LC50 TBW” value [2, 4] was >600 ppm.
For `CN1CC(c2ccc(Cl)cc2)=NN(CC#N)C1=O` [Compound 24], the “LC50 AW” value [1, 3] was 50 ppm and the “LC50 TBW” value [2, 4] was >600 ppm.
In the case of `CCCN1N=C(c2cccc(Cl)c2)CN(C)C1=O` [Compound 25], the “LC50 AW” value [1, 3] is reported as 500 ppm and the “LC50 TBW” value [2, 4] is reported as >600 ppm.
With `CN1CC(c2ccc(Cl)cc2)=NN(CSc2ccccc2)C1=O` [Compound 26] the “LC50 AW” value [1, 3] was 500 ppm and the “LC50 TBW” value [2, 4] was >600 ppm.
With `CN1CC(c2ccc(Cl)cc2)=NN(C#N)C1=O` [Compound 27] the “LC50 AW” value [1, 3] was 45 ppm and the “LC50 TBW” value [2, 4] was >600 ppm.
In the case of `CN1CC(c2ccc(Cl)cc2)=NN(Cc2ccc(Cl)cc2)C1=O` [Compound 30], the “LC50 AW” value [1, 3] is reported as 500 ppm and the “LC50 TBW” value [2, 4] is reported as 740 ppm.
